Reference: the supplement of paper PMC8512760
The list shows a part of the results. Most values come without repeats; read them as rough.

Tested on: SUM-149
Test: cell viability relative to vehicle (% of vehicle); basal-like triple-negative breast cancer lines; higher = less cytotoxic
Conditions: 10 µM; 72 h
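Further: stably firefly luciferase-GFP labeled cells in 96-well plates, viability read as luciferase photon flux after d-luciferin addition, treated wells normalized to vehicle wells, single-dose high-throughput screen.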

SMILES	cell viability
O=C(O)CCNC(=O)c1ccccc1 [Betamipron]	85.8
NC(N)=NS(=O)(=O)c1ccc(N)cc1 [Sulfaguanidine]	98.5
CC(C)(C)NC(=O)C1CCC2C3CCC4NC(=O)C=CC4(C)C3CCC12C (centres undefined) [Finasteride]	120
COc1ccc(C=Cc2cc(OC)c(OC)c(OC)c2)cc1OP(=O)([O-])[O-].[Na+].[Na+] [Fosbretabulin (Combretastatin A4 Phosphate (CA4P)) Disodium]	162
CCCN1CCCCC1C(=O)Nc1c(C)cccc1C.Cl (centres undefined) [Ropivacaine HCl]	139
CS(=O)(=O)OCCCCOS(C)(=O)=O [Busulfan]	121
CC(O)C1C(=O)N2C(C(=O)OCOC(=O)C(C)(C)C)=C(SC3CN(C4=NCCS4)C3)C(C)C12 (centres undefined) [Tebipenempivoxil]	128
COc1ccc2c(c1)c(CC(=O)O)c(C)n2C(=O)c1ccc(Cl)cc1 [Indomethacin]	101
CCCCCN(C)CCC(O)(P(=O)([O-])O)P(=O)(O)O.O.[Na+] [Ibandronate sodium]	93.5
Cc1ccc(NC(=O)c2ccc(CN3CCN(C)CC3)cc2)cc1Nc1nc(-c2cccnc2)cs1 [Masitinib (AB1010)]	78.5
Cl.Nc1ccn(C2OC(CO)C(O)C2O)c(=O)n1 (centres undefined) [Cytarabine hydrochloride]	196
CNCC(O)c1ccc(O)c(O)c1.Cl (centres undefined) [Epinephrine HCl]	108
CCOc1cc(N)c(Cl)cc1C(=O)NCC1CN(Cc2ccc(F)cc2)CCO1.O=C(O)CC(O)(CC(=O)O)C(=O)O (centres undefined) [Mosapride Citrate]	98.3
Cc1cccc(Nc2ccncc2S(=O)(=O)NC(=O)NC(C)C)c1 [Torsemide]	122
